The other results are listed elsewhere or left out. Single values are uncertain, as repeats are few or missing.
Experiments:
Test in all cases: cell count relative to DMSO control; melanoma cells; higher = more viable cells
Details in all cases: library dose: standard library concentration; 72 h
G361 = test system: G361
IPC-298 = test system: IPC-298
IST-MEL1 = test system: IST-MEL1
LB2518-MEL = test system: LB2518-MEL
LOXIMVI = test system: LOXIMVI
MEL-HO = test system: MEL-HO
MZ2-MEL = test system: MZ2-MEL
MeWo = test system: MeWo
RPMI7951 = test system: RPMI7951
RVH-421 = test system: RVH-421
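Further: cells treated in 1,536-well plates, then fixed and DAPI-stained, with nuclei counted from automated high-throughput microscope images.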

Compound | cell count (G361) [%] | cell count (IPC-298) [%] | cell count (IST-MEL1) [%] | cell count (LB2518-MEL) [%] | cell count (LOXIMVI) [%] | cell count (MEL-HO) [%] | cell count (MZ2-MEL) [%] | cell count (MeWo) [%] | cell count (RPMI7951) [%] | cell count (RVH-421) [%]
Cc1ccc(Nc2nccc(N(C)c3ccc4c(C)n(C)nc4c3)n2)cc1S(N)(=O)=O [Pazopanib] + Cn1c(Nc2ccc(C(F)(F)F)cc2)nc2cc(Oc3ccnc(-c4ncc(C(F)(F)F)[nH]4)c3)ccc21 [CHIR265] (first compound 2 µM, partner dose 0.4 µM) | 34.8 | 44.5 | 94.8 | 34.5 | 65 | 59.7 | 57.6 | 69.9 | 31.5 | 72.6
Cc1ccc(Nc2nccc(N(C)c3ccc4c(C)n(C)nc4c3)n2)cc1S(N)(=O)=O [Pazopanib] + O=C(O)c1ccc(-c2c[nH]c3ncc(-c4ccccc4)cc23)cc1C1CCCC1 [GSK650394] (first compound 2 µM, partner dose 0.8 µM) | 62 | 65.5 | 83.5 | – | 80 | 77.7 | – | 79.7 | 60 | 90.9
O=C(/C=C/c1cccnc1)NCCCCC1CCN(C(=O)c2ccccc2)CC1 + CC(C)C[C@H](NC(=O)[C@H](Cc1ccccc1)NC(=O)c1cnccn1)B(O)O [Bortezomib] (first compound 0.05 µM, partner dose 0.005 µM) | 0.578 | 6.25 | 5.5 | 1.35 | 14.4 | 23 | 5.86 | 15.7 | 2 | 3.99
Cc1ccc(Nc2nccc(N(C)c3ccc4c(C)n(C)nc4c3)n2)cc1S(N)(=O)=O [Pazopanib] + C=CCn1c(=O)c2cnc(Nc3ccc(N4CCN(C)CC4)cc3)nc2n1-c1cccc(C(C)(C)O)n1 [MK1775] (first compound 2 µM, partner dose 0.1 µM) | 72.8 | 74.2 | 99.4 | – | 71.7 | 85.6 | – | 85 | 65.6 | 113
O=C(/C=C/c1cccnc1)NCCCCC1CCN(C(=O)c2ccccc2)CC1 + CC(=O)O[C@@]12CO[C@@H]1C[C@H](O)[C@@]1(C)C(=O)[C@H](O)C3=C(C)[C@@H](OC(=O)[C@H](O)[C@@H](NC(=O)OC(C)(C)C)c4ccccc4)C[C@@](O)([C@@H](OC(=O)c4ccccc4)[C@H]21)C3(C)C [Docetaxel] (first compound 0.05 µM, partner dose 0.0005 µM) | 3.45 | 24.4 | 36.7 | 33.7 | 80.2 | 29.9 | 28.5 | 27.8 | 21.1 | 91.6
O=C(/C=C/c1cccnc1)NCCCCC1CCN(C(=O)c2ccccc2)CC1 + CCN(CC)CCCCNc1ncc2cc(-c3cc(OC)cc(OC)c3)c(NC(=O)NC(C)(C)C)nc2n1 [PD173074] (first compound 0.05 µM, partner dose 0.5 µM) | 2.56 | 36.7 | 59.2 | – | 55.7 | 47.2 | – | 96.3 | 79.5 | 66.2
CC1(C)CCC(c2ccc(Cl)cc2)=C(CN2CCN(c3ccc(C(=O)NS(=O)(=O)c4ccc(N[C@H](CCN5CCOCC5)CSc5ccccc5)c(S(=O)(=O)C(F)(F)F)c4)cc3)CC2)C1 + C=C(c1ccc(C(=O)O)cc1)c1cc2c(cc1C)C(C)(C)CCC2(C)C [Bexarotene] (first compound 2 µM, partner dose 10 µM) | 52.7 | 68.7 | 69.2 | 82.8 | 77.5 | 57.5 | 68.1 | 99.4 | 38.1 | 40.8
Cc1ccc(Nc2nccc(N(C)c3ccc4c(C)n(C)nc4c3)n2)cc1S(N)(=O)=O [Pazopanib] + CC(C)CCN1c2nc(Nc3cc(F)c(O)c(F)c3)ncc2N(C)C(=O)C1C [BID1870] (first compound 2 µM, partner dose 1 µM) | 52.4 | 61.6 | 83.5 | – | 71.4 | 73.8 | – | 72.1 | 77.2 | 78.5
O=C(/C=C/c1cccnc1)NCCCCC1CCN(C(=O)c2ccccc2)CC1 + CNC(=O)c1cc(Oc2ccc(NC(=O)Nc3ccc(Cl)c(C(F)(F)F)c3)cc2)ccn1 [sorafenib] (first compound 0.05 µM, partner dose 2 µM) | 7.92 | 43.5 | 76.1 | 71.9 | 127 | 47.5 | 41.1 | 84.5 | 68 | 54.6
CC1(C)CCC(c2ccc(Cl)cc2)=C(CN2CCN(c3ccc(C(=O)NS(=O)(=O)c4ccc(N[C@H](CCN5CCOCC5)CSc5ccccc5)c(S(=O)(=O)C(F)(F)F)c4)cc3)CC2)C1 + CO[C@H]1C[C@@H]2CC[C@@H](C)[C@@](O)(O2)C(=O)C(=O)N2CCCC[C@H]2C(=O)O[C@H]([C@H](C)C[C@@H]2CC[C@@H](OCCO)[C@H](OC)C2)CC(=O)[C@H](C)/C=C(\C)[C@@H](O)[C@@H](OC)C(=O)[C@H](C)C[C@H](C)/C=C/C=C/C=C/1C [everolimus] (first compound 2 µM, partner dose 0.1 µM) | 36.8 | 65.1 | 49.5 | 45.2 | 23.9 | 33.7 | 55.9 | 64.6 | 49.1 | 33.8
O=C(/C=C/c1cccnc1)NCCCCC1CCN(C(=O)c2ccccc2)CC1 + O=C(Nc1cccc(Cl)c1)Nc1ncc(CCNc2ncnc3ccsc23)s1 [SNS314] (first compound 0.05 µM, partner dose 0.004 µM) | 3.58 | 41.9 | 50.5 | 66.4 | 71.9 | 43.3 | 50.1 | 78.7 | 69.8 | 35.7

— the supplement of paper PMC4604168 (melanoma cell lines)
